Among the data in the supplement of paper PMC4604168 (melanoma cell lines) are cell count values, retold here.

The other results are listed elsewhere or left out. Single values are uncertain, as repeats are few or missing.
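Note: cells treated in 1,536-well plates, then fixed and DAPI-stained, with nuclei counted from automated high-throughput microscope images.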

This assay has as its system SkMel5. The assay can be described thus: cell count relative to DMSO control; melanoma cells; higher = more viable cells. The conditions noted are these: library dose: standard library concentration; 72 h.
Turning to `Cc1cc(Nc2cc(N3CCN(C)CC3)nc(Sc3ccc(NC(=O)C4CC4)cc3)n2)n[nH]1` [Tozasertib] + C[C@]1(c2nc3c(C(N)=O)cccc3[nH]2)CCCN1 [Veliparib] (first compound 0.03 µM, partner dose 7 µM), the cell count worked out at 76.4%. In turn, `N#CC[C@H](C1CCCC1)n1cc(-c2ncnc3[nH]ccc23)cn1` [ruxolitinib] + Cn1cncc1[C@@](N)(c1ccc(Cl)cc1)c1ccc2c(c1)c(-c1cccc(Cl)c1)cc(=O)n2C [tipifarnib] (first compound 5 µM, partner dose 0.05 µM) yielded a cell count of 74.4%. `CC[C@]1(O)C[C@H]2CN(CCc3c([nH]c4ccccc34)[C@@](C(=O)OC)(c3cc4c(cc3OC)N(C=O)[C@H]3[C@@](O)(C(=O)OC)[C@H](OC(C)=O)[C@]5(CC)C=CCN6CC[C@]43[C@@H]65)C2)C1` [vincristine] + Cc1cc(Nc2cc(N3CCN(C)CC3)nc(/C=C/c3ccccc3)n2)n[nH]1 [ENMD2076] (first compound 0.0005 µM, partner dose 0.2 µM) showed a cell count of 65.1%. `Cc1cc(Nc2cc(N3CCN(C)CC3)nc(Sc3ccc(NC(=O)C4CC4)cc3)n2)n[nH]1` [Tozasertib] + CC(C)CCN1c2nc(Nc3cc(F)c(O)c(F)c3)ncc2N(C)C(=O)C1C [BID1870] (first compound 0.03 µM, partner dose 1 µM) returned a cell count of 71.5%. For `CC[C@]1(O)C[C@H]2CN(CCc3c([nH]c4ccccc34)[C@@](C(=O)OC)(c3cc4c(cc3OC)N(C=O)[C@H]3[C@@](O)(C(=O)OC)[C@H](OC(C)=O)[C@]5(CC)C=CCN6CC[C@]43[C@@H]65)C2)C1` [vincristine] + CN(NC(=O)CC(=O)NN(C)C(=S)c1ccccc1)C(=S)c1ccccc1 [STA4783] (first compound 0.0005 µM, partner dose 0.03 µM) the value was 38.7%. For `CC[C@]1(O)C[C@H]2CN(CCc3c([nH]c4ccccc34)[C@@](C(=O)OC)(c3cc4c(cc3OC)N(C=O)[C@H]3[C@@](O)(C(=O)OC)[C@H](OC(C)=O)[C@]5(CC)C=CCN6CC[C@]43[C@@H]65)C2)C1` [vincristine] + CO[C@@H]1[C@H](N(C)C(=O)c2ccccc2)C[C@H]2O[C@]1(C)n1c3ccccc3c3c4c(c5c6ccccc6n2c5c31)C(=O)NC4 [Midostaurin] (first compound 0.0005 µM, partner dose 0.4 µM) the value was 59.8%. `N#CC[C@H](C1CCCC1)n1cc(-c2ncnc3[nH]ccc23)cn1` [ruxolitinib] + CN1CCN(c2ccc3nc(-c4c(N)c5c(F)cccc5[nH]c4=O)[nH]c3c2)CC1 [Dovitinib] (first compound 5 µM, partner dose 0.5 µM) showed a cell count of 52.6%.

`N#CC[C@H](C1CCCC1)n1cc(-c2ncnc3[nH]ccc23)cn1` [ruxolitinib] + CN(C)S(=O)(=O)c1ccc2c(c1)/C(=C/c1cc3c([nH]1)CCCC3)C(=O)N2 [SU6656] (first compound 5 µM, partner dose 2 µM) had a cell count of 64.2%.

Take `Cc1cc(Nc2cc(N3CCN(C)CC3)nc(Sc3ccc(NC(=O)C4CC4)cc3)n2)n[nH]1` [Tozasertib] + O=C(Nc1cccc(Cl)c1)Nc1ncc(CCNc2ncnc3ccsc23)s1 [SNS314] (first compound 0.03 µM, partner dose 0.004 µM): the cell count was 49.1%.

As to `CC[C@]1(O)C[C@H]2CN(CCc3c([nH]c4ccccc34)[C@@](C(=O)OC)(c3cc4c(cc3OC)N(C=O)[C@H]3[C@@](O)(C(=O)OC)[C@H](OC(C)=O)[C@]5(CC)C=CCN6CC[C@]43[C@@H]65)C2)C1` [vincristine] + COc1ccc(Cl)c(Nc2nc3ccccc3nc2NS(=O)(=O)c2cccc(NC(=O)C(C)(C)N)c2)c1 [XL147] (first compound 0.0005 µM, partner dose 4 µM), the cell count was 57.2%. With `CC[C@]1(O)C[C@H]2CN(CCc3c([nH]c4ccccc34)[C@@](C(=O)OC)(c3cc4c(cc3OC)N(C=O)[C@H]3[C@@](O)(C(=O)OC)[C@H](OC(C)=O)[C@]5(CC)C=CCN6CC[C@]43[C@@H]65)C2)C1` [vincristine] + CO[C@H]1C[C@@H]2CC[C@@H](C)[C@@](O)(O2)C(=O)C(=O)N2CCCC[C@H]2C(=O)O[C@H]([C@H](C)C[C@@H]2CC[C@@H](OCCO)[C@H](OC)C2)CC(=O)[C@H](C)/C=C(\C)[C@@H](O)[C@@H](OC)C(=O)[C@H](C)C[C@H](C)/C=C/C=C/C=C/1C [everolimus] (first compound 0.0005 µM, partner dose 0.1 µM) the figure was 46.8%.
